Experimental data: the supplement of paper PMC9262897, “Low-cost anti-mycobacterial drug discovery using engineered E. coli” (Nature Communications, 2022)
Further values from the same series stand in other lists.

What was measured:
[1] = system: E. coli TESEC strain (Mtb target enzyme); test: growth (OD600 after 10 h); higher = more growth
Experimental: (§1)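 Chemical-genetic validation profiles: TESEC strains (Mtb Asd or DapB, arabinose-inducible) or the wild-type control grown in a two-dimensional dilution series of drug (µM) and arabinose. Growth is read as OD600 after 10 h in triplicate.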

[2] = system: E. coli wild-type control; test: growth (OD600 after 10 h); higher = more growth
Experimental: as §1

CN(Cc1cc(Br)cc(Br)c1N)C1CCCCC1 [Bromhexine] (TESEC target enzyme: Mtb Asd)
growth
Settings	drug 1.7 µM	drug 3.9 µM	drug 8.8 µM	drug 19.8 µM	drug 44.4 µM	drug 100 µM
[1], arabinose 15560 nM	0.134	0.144	0.144	0.14	0.136	0.119
[1], arabinose 28008 nM	0.134	0.131	0.123	0.162	0.122	0.12
[1], arabinose 50414 nM	0.151	0.164	0.16	0.141	0.119	0.124
[1], arabinose 90744 nM	0.183	0.181	0.157	0.157	0.132	0.136
[1], arabinose 163340 nM	0.18	0.192	0.171	0.179	0.125	0.134
[1], arabinose 294012 nM	0.213	0.238	0.193	0.231	0.168	0.16
[1], arabinose 529221 nM	0.29	0.283	0.262	0.286	0.235	0.244
[1], arabinose 952599 nM	0.331	0.34	0.308	0.321	0.28	0.317
[1], arabinose 1714678 nM	0.35	0.332	0.298	0.341	0.305	0.326
[1], arabinose 3086420 nM	0.356	0.319	0.299	0.337	0.31	0.327
[1], arabinose 5555556 nM	0.298	0.323	0.333	0.331	0.322	0.311
[1], arabinose 10000000 nM	0.317	0.323	0.287	0.326	0.309	0.314
[2], arabinose 15560 nM	–	–	–	–	0.147	0.173
[2], arabinose 28008 nM	–	–	–	–	0.141	0.148
[2], arabinose 50414 nM	–	–	–	–	0.159	0.163
[2], arabinose 90744 nM	–	–	–	–	0.156	0.161
[2], arabinose 163340 nM	–	–	–	–	0.17	0.165
[2], arabinose 294012 nM	–	–	–	–	0.185	0.198
[2], arabinose 529221 nM	–	–	–	–	0.201	0.211
[2], arabinose 952599 nM	–	–	–	–	–	0.2
[2], arabinose 1714678 nM	–	–	–	–	–	0.215
[2], arabinose 3086420 nM	–	–	–	–	–	0.278
[2], arabinose 5555556 nM	–	–	–	–	–	0.222
[2], arabinose 10000000 nM	–	–	–	–	0.213	0.257
